These results are taken from PMC9574860, “Chemical Toolkit for PARK7: Potent, Selective, and High-Throughput” (Journal of Medicinal Chemistry, 2022).

SMILES strings stand for the structures. Out of some 7,900 compounds screened, about 400 (5.1%) showed an effect of 50% or more. The list shows a part of the results.

Sequence of Parkinson's disease protein 7 (PARK7/DJ1) (Q99497 whole entry, looked up, the tested form may be a part): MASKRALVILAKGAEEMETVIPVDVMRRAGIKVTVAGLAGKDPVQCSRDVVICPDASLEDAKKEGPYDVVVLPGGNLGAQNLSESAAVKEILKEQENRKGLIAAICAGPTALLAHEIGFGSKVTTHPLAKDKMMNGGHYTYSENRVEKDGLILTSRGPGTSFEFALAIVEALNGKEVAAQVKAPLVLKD

The experiment deals with Parkinson's disease protein 7 (PARK7/DJ1) (human, UniProt Q99497). Put plainly: primary screen, percent inhibition; read as competition with a fluorescent probe by fluorescence polarization; higher = more effect of the substance. The settings on record: 100 µM. Put shortly:
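Covalent fragments at 100 μM final were incubated 2 h with 0.2 μM PARK7, then 20 nM probe JYQ-107 added for a further 2 h. Fluorescence polarization read at 480/520 nm; relative FP loss versus reference controls gave remaining enzyme activity.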
On to `CC1CC(C(=O)NCc2cc(=O)[nH]c(S)n2)CC(C)(C)C1` (centres unmarked), for which the Inhibition % turned out to be 6.89%.
With `Cc1nccc(NS(=O)(=O)c2ccc(S(=O)(=O)F)cc2)n1`, the Inhibition % is reported as 57.9%.
Regarding `O=C(CCl)N=c1sccn1Cc1cccc2ccccc12`, the Inhibition % amounted to 3.64%.
Under `C=CC(=O)NC1CCCS(=O)(=O)c2ccccc21` (centres unmarked) stands 10.9%; under `Cc1ccc(C=CC(=O)N2CCC(NS(C)(=O)=O)CC2)o1`, 10.6%.
Under `N#CCc1ccc(NS(=O)(=O)C=Cc2ccccc2)cc1` stands 7.7%; under `NC(=O)CCc1ccc(C(=O)CCl)cc1`, 82.5%.
The figure for `O=C(CCl)Nc1ncc(C(F)(F)F)cc1Cl` is 15.4%; for `O=C(NCC12CC3CC(CC(C3)C1)C2)c1cccnc1S` it is 8.16%; for `Cc1nc(NS(=O)(=O)c2ccc(S(=O)(=O)F)cc2)no1` it is 22.7%.
In the case of `O=C(CCl)NC1CCCC1`, the Inhibition % is 15.6%.
Consider `Cc1cc(NC(=O)CCCl)no1`, for which the Inhibition % is recorded as 1.08%.
With `N#CC(=Cc1ccsc1)C(=O)Nc1nccs1`, the Inhibition % was 8.96%.
As for `C=CC(=O)NC1CCCOC1` (centres unmarked), the Inhibition % is listed as 0.851%.
On to `CCc1noc(CC)c1CNCc1ccc(B(O)O)cc1`, for which the Inhibition % is on record as 4.39%.
As to `Cc1cc(C)n(S(=O)(=O)c2ccccc2)n1`, the Inhibition % was determined as 11.5%.
`Cc1cc(C=C(C#N)C(=O)N2CCC2)c(C)n1C1CC1`: the Inhibition % amounted to 5.63%.
In the case of `N#CC(=Cc1csc(-c2ccc(F)cc2)n1)C(N)=O`, the Inhibition % is on record as 12.4%.
Under `C=CC(=O)N[C@@H]1c2sccc2OC(C)(C)[C@H]1O` (racemic) stands 9.43%; under `O=C1CC(CC(=O)N2CCSc3ccccc32)CO1` (centres unmarked), 2.01%.
Turning to `O=C(CCl)Nc1ccc(Cl)c(C(F)(F)F)c1`, the Inhibition % is listed as 26.2%.
Take `OB(O)C1=CCN(Cc2ccnn2-c2ccncc2)CC1`: the Inhibition % was 61.3%.
The figure for `C=CC(=O)N1CC(C)(OCC)C1` is 8.54%; for `C=CC(=O)N1CC=C(COC)CC1` it is 11.3%.
Regarding `Cc1noc(C(C)NS(=O)(=O)C=Cc2ccccc2)n1` (centres unmarked), the Inhibition % is reported as 8%.
The figure for `C=CC(=O)N1CC(=O)Nc2ccccc21` is 10%.
With `O=C1CCC(=O)N1CC1CO1` (centres unmarked), the Inhibition % is listed as 11%.
In the case of `Fc1cccc(C2CO2)c1` (centres unmarked), the Inhibition % came to 28.4%.
As for `CCOC1CC(Cl)C1` (centres unmarked), the Inhibition % is 5.87%.
For the compound `CNC(=O)C(C#N)=Cc1ccc(OC)cc1OC(C)C`, the Inhibition % is reported as 7.72%.
The figure for `Cc1ccc(CN(C)C2CC(C)OC2=O)cc1` (centres unmarked) is 6.84%; for `COc1ccc2[nH]c(C)c(C(=O)CCl)c2c1` it is 4.84%.
Consider `C=CC(=O)NCC1(N(C)C)CCOCC1`, for which the Inhibition % came to 14.4%.
For the compound `Cc1cc(C)cc(NC(=O)CCl)c1`, the Inhibition % was determined as 11.3%.
The figure for `CC(c1ccccc1)N(C)C(=O)Cn1cnc(C#N)n1` (centres unmarked) is 7.46%; for `O=C1OCCC1NC1c2ccccc2-c2ccccc21` (centres unmarked) it is 3.41%.
Consider `N#Cc1ccc(NC2CCCC2O)cn1` (centres unmarked), for which the Inhibition % is 3.91%.
Take `Cc1nn(-c2ccc(Cl)cc2)c(C)c1C=C(C#N)C(=O)O`: the Inhibition % is -1.13%.
For `CC1NC(=O)CCC1NC(=O)c1ccnc(C#N)c1` (centres unmarked), the Inhibition % was determined as 10%.
For the compound `N#Cc1ncsc1Cl`, the Inhibition % is reported as 2.87%.
Turning to `C=CS(=O)(=O)Oc1ccccc1`, the Inhibition % was determined as 12.6%.
The figure for `OB(O)c1ccc2nncn2c1` is 3.76%; for `O=S(=O)(F)c1ccc(S(=O)(=O)F)cc1` it is 7.58%; for `C=CC(=O)NCC1(C)CC1(C)C` (centres unmarked) it is -4.35%.
Under `CCOC(=O)N1CCN(C(=O)CCl)CC1` stands 67.8%; under `O=C(CCl)Nc1ccccc1Oc1ccccc1`, 6.38%.
Take `C#CC(=O)N(C)c1ccc(O)cc1`: the Inhibition % is on record as -2.3%.
Take `Cl.O=C(CCl)NC1CCN(C2CC2)CC1`: the Inhibition % is given as 6.09%.
Turning to `O=C(CCl)NC(=O)c1ccc(OC(F)F)cc1`, the Inhibition % worked out at 28.9%.
`CCOc1ccc(S(=O)(=O)n2nc(C)cc2C)cc1`: the Inhibition % is 3.86%.
As to `C=CC(=O)NC1CCCN(c2ccccc2)C1` (centres unmarked), the Inhibition % was 5.28%.
In the case of `O=C(CCl)NCCOc1cccc(F)c1`, the Inhibition % stood at 14.5%.
Take `CN(C)C(=O)c1ccc(CNC(=O)CCl)cc1`: the Inhibition % worked out at 2.36%.
With `Cc1nc(C(C)NC(=O)c2cccnc2S)no1` (centres unmarked), the Inhibition % is 8.34%.
For `C=CC(=O)N1CCCCC1C(=O)O` (centres unmarked), the Inhibition % is reported as 3.57%.
On to `CCOc1ccc(O)c(C=O)c1`, for which the Inhibition % is given as 13.8%.
For the compound `COc1ccc(C2CCCN2C(=O)n2ccnc2)cc1` (centres unmarked), the Inhibition % was found to be 6.77%.
With `CN(C)C(=O)Oc1ccc(Cl)c2cccnc12`, the Inhibition % came to 4.87%.
The figure for `CN(CC(=O)Nc1ccc(F)cc1)C(=O)CCl` is 94.2%; for `O=c1onc(-c2cnccn2)n1Cc1cccc(F)c1` it is -2.87%; for `CC(C)(C)c1cc(NC(=O)CCl)n(-c2ccccc2)n1` it is 29.9%.
Turning to `O=S1(=O)C=CC(Nc2ccccc2)C1` (centres unmarked), the Inhibition % is listed as 4.24%.
Consider `C=CC(=O)N(C)Cc1c(C)noc1C`, for which the Inhibition % stood at 0.947%.
Under `Cc1ccc(F)cc1Oc1cnc(C#N)cn1` stands 6.34%.
The figure for `C=CCNC(=O)C(C#N)=Cc1ccc(OC)c(O)c1` is 5.17%; for `CN(C)CCCn1c(S)nc2ccccc2c1=O` it is 5.79%; for `C=CC(=O)N1Cc2cnn(-c3ccncc3)c2CC(C)(C)C1` it is 3.45%.
Turning to `N#CC1C(=O)NC(=O)C(C(=O)S)C12CCCCC2` (centres unmarked), the Inhibition % amounted to 14.8%.
As to `CC1(C)OB(c2cccc(OC(F)(F)F)c2)OC1(C)C`, the Inhibition % is 0.275%.
The figure for `COc1ccc(C2=NC(=Cc3csc(C)n3)C(=O)O2)cc1` is 14.1%; for `CCN(C(=O)CCl)c1cccc2ccccc12` it is 21.4%; for `CC1(C)CC(OS(C)(=O)=O)CCO1` (centres unmarked) it is 8.17%.
For the compound `C=CC(=O)N1CCSCCC1C` (centres unmarked), the Inhibition % is 7.94%.
Consider `Cc1ccc(NC(=O)Cn2cnc(C#N)n2)cc1Cl`, for which the Inhibition % was -3.39%.
Turning to `CC(C)(C)OC(=O)N[C@@H]1CC[C@H](CS(=O)(=O)F)C1` (racemic), the Inhibition % came out at 87.2%.
The figure for `C=CC(=O)N1CCC(c2ncno2)CC1` is 9.72%.
Under `C=CC(=O)NCc1ccn(C2CCCC2)n1` stands 2.26%; under `Cc1cc(C#N)nc(NC2CCCCCC2)n1`, 2.75%; under `O=C(CCl)NC(=O)c1ccc(Cl)cc1`, 19.6%.
As for `O=C(NCc1ccccc1)N1CCCCC1C1OCCO1` (centres unmarked), the Inhibition % worked out at 6.92%.
`CC1CCCN1Cc1cccc(B2OC(C)(C)C(C)(C)O2)c1` (centres unmarked): the Inhibition % stood at 0.686%.
Under `C=CC(=O)Nc1ccc(N2CCNC(=O)C2)nc1` stands 30.4%.
Turning to `Cc1nc(C#N)cs1`, the Inhibition % was found to be 2.19%.
Under `COCc1cccc(CNC(=O)c2cccnc2S)c1` stands 9.15%; under `CC1(C)OB(c2scc3c2OCCO3)OC1(C)C`, 9.49%.
Consider `CN1C2CCC1CC(CCl)C2.Cl` (centres unmarked), for which the Inhibition % stood at 5.78%.
The figure for `C=CC(=O)N1CC(n2cccn2)C1` is 9.97%; for `Cl.NC1C=CS(=O)(=O)C1` (centres unmarked) it is 9.63%.
Turning to `Cc1n[nH]c(S)nc1=O`, the Inhibition % is 2.15%.
For `COC(=O)c1cc(B2OC(C)(C)C(C)(C)O2)cn1C(=O)OC(C)(C)C`, the Inhibition % was 7.29%.
As for `C#CC(=O)Nc1cc(OC)c(C(=O)O)cc1Cl`, the Inhibition % was 3.68%.
With `C=CC(=O)NC1CCOC(C)(C)C1` (centres unmarked), the Inhibition % was 9.14%.
On to `C=CC(=O)N1CC(OC(=O)Nc2cccc(F)c2)C1`, for which the Inhibition % stood at 3.98%.
Regarding `CN1CC(=O)OB(c2cccc(Cl)c2)OC(=O)C1`, the Inhibition % is 10.6%.
The figure for `C=CC(=O)NCC(=O)Nc1ccc2c(c1)OCCO2` is 3.23%.
Regarding `O=C(CCl)NCCOc1ccc2ccccc2c1`, the Inhibition % is reported as 28.3%.
With `Cn1cc(C=CC(=O)N2CCN(c3nccs3)CC2)cn1`, the Inhibition % was 7.93%.
On to `O=C(CCl)NC1CCCCCC1`, for which the Inhibition % was 8.24%.
Turning to `C=CC(=O)N1CCN(C(=O)OCC(C)C)CC1`, the Inhibition % amounted to 11.5%.
In the case of `Cc1ccc(CNC(=O)C(C#N)=CN(C)C)cc1`, the Inhibition % is recorded as 4.58%.
In the case of `CCOC(=O)C1CCC(=CB2OC(C)(C)C(C)(C)O2)CC1` (centres unmarked), the Inhibition % was 10.3%.
As for `O=C1CCC(Cc2cccc(O)c2)O1` (centres unmarked), the Inhibition % was found to be 7.14%.
The figure for `Cc1noc(C)c1C(=O)CCl` is 13.5%; for `CC(C)CC(CO)NC(=O)c1cccnc1S` (centres unmarked) it is 7.34%; for `Cc1cc(C)c(C#N)c(SC2CCOC2=O)n1` (centres unmarked) it is 16%.
Under `C=CCC1N(C(=O)C=C)CCCC1(C)C` (centres unmarked) stands 6.79%; under `Cc1ccccc1N1CCN(C(=O)n2ccnc2)CC1`, 8.38%.
Under `O=C1CCC(=O)N1Cc1cc(-c2ccccc2)on1` stands 0.792%; under `C=CC(=O)NC1CC(=O)N2CCCCC12` (centres unmarked), 9.46%; under `Cn1nccc1C=CC(=O)N1CCCCC1C(=O)O` (centres unmarked), 6.67%.
Take `CC(C)C1NC(=O)C1(C)C` (centres unmarked): the Inhibition % is on record as 0.897%.
Regarding `Cc1cccc(C)c1OCC1CO1` (centres unmarked), the Inhibition % is 13.6%.
Take `C=CC(=O)NC1CC(=O)N(c2cccc(OC)c2)C1` (centres unmarked): the Inhibition % turned out to be 3.42%.
With `O=C(CN1CCSC1=O)Nc1nc2ccccc2s1`, the Inhibition % amounted to 1.64%.
Regarding `CC(C)(C)c1cc(NC(=O)CCl)on1`, the Inhibition % is 9.31%.
Regarding `CC1CC(Cl)CC(C)O1` (centres unmarked), the Inhibition % came out at 3.99%.
The figure for `CCCC(=O)NC1CCCN(c2ccc(C#N)nc2)C1` (centres unmarked) is 5.26%; for `CN(C)c1cccc2c(B(O)O)cccc12` it is 24.8%.
For the compound `C=CC(=O)N(CC)Cc1cc(Br)ccc1O`, the Inhibition % is 8.51%.
Regarding `Cc1cccc(Oc2ccc(NC(=O)CCl)cc2)c1`, the Inhibition % is reported as 81.6%.
Consider `Cc1ccc(CC(=O)N2CCCCC2C2OCCO2)cc1` (centres unmarked), for which the Inhibition % is -3.9%.
As for `COc1cc(C)ccc1S(=O)(=O)n1cccn1`, the Inhibition % turned out to be 7.7%.
As for `COC(C)c1cccc(NC(=O)c2cccnc2S)c1` (centres unmarked), the Inhibition % amounted to 4.97%.
For `CC(N)C1CCCN(C(=O)C=Cc2cccnc2)C1` (centres unmarked), the Inhibition % came to 7.72%.
Consider `C=CC(=O)Nc1ccc(N(C)C(C)C)c(F)c1`, for which the Inhibition % was 14.9%.
